Hit rate of the full screen: of about 310,000 compounds, about 14,000 (4.5%) showed an effect of 50% or more. Effects have a minus sign here. The list shows a part of the results.
Target: human ether-à-go-go-related gene (hERG) potassium channel (human, UniProt Q12809)
Experiment: primary screen, population patch clamp on CHO cells stably expressing hERG
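Also: peak tail current of the secondary pulse compared with the same well before compound.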

Sequence of human ether-à-go-go-related gene (hERG) potassium channel (Q12809 whole entry, looked up): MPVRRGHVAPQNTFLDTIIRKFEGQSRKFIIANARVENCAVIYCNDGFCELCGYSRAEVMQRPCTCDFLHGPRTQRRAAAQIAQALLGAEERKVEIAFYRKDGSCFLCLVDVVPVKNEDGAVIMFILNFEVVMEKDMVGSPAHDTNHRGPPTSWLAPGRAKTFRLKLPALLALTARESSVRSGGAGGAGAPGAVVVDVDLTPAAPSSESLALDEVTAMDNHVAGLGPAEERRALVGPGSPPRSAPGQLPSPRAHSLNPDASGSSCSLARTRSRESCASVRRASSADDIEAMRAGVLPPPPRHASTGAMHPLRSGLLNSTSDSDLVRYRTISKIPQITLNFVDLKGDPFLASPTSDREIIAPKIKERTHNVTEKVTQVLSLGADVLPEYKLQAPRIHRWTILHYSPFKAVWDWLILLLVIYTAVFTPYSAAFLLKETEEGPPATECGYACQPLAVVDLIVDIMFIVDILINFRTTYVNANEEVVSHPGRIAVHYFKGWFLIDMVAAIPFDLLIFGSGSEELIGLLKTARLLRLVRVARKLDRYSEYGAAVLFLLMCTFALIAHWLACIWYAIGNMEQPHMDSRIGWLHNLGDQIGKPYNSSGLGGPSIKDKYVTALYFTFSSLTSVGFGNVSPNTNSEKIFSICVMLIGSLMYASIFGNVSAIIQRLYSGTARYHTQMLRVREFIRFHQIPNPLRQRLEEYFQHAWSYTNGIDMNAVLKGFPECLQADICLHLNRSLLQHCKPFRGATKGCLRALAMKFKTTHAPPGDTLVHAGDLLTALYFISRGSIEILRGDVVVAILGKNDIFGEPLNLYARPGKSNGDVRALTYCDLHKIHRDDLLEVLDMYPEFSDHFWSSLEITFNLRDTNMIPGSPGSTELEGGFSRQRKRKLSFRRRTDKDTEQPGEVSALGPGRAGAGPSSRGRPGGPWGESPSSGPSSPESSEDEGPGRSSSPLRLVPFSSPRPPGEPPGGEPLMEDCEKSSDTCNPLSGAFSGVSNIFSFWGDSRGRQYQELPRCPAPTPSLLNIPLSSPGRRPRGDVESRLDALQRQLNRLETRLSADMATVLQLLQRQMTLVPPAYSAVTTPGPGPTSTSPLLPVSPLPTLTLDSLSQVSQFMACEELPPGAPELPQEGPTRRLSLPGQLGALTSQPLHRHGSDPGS

SMILES	hERG current change (%, negative = inhibition) at 10uM [%]
O=C(CCN1C(=O)c2ccc([N+](=O)[O-])cc2C1=O)Nc1cccc(O)c1	-0.271
Cc1ccc(C2SCC(C(=O)O)N2C(=O)c2ccc(F)cc2)cc1 (stereo not drawn)	5.58
Cc1c(Cl)cccc1NC(=O)C1CCN(S(C)(=O)=O)CC1	7.22
O=C(c1ccco1)N(Cc1ccco1)c1ccc(O)cc1	10.6
COC(=O)C1CN(C(=O)COc2ccccc2C)c2ccccc2O1 (stereo not drawn)	1.6
COc1ccccc1CNC(=O)CN1C(=O)c2ccc([N+](=O)[O-])cc2C1=O	5.65
COc1cc(NC(=O)c2ccccc2-c2ccccc2)cc(OC)c1	-32.4
CCOC(=O)N1CCN(S(=O)(=O)c2ccc(OC)c(OC)c2)CC1	3.2
C[C@@]12C(=O)Nc3ccccc3C(=O)N1[C@H]1c3cc(Br)ccc3OC[C@@H]1[C@@H]2c1ccccc1	-3.69
NC(=O)CSc1nnc(SCc2ccc(F)cc2)s1	4.24
CCC(C)n1c(=O)c(C(=O)Nc2ccccc2S(N)(=O)=O)c(O)c2ccccc21 (stereo not drawn)	2.09
O=C(O)c1ccc(NS(=O)(=O)c2cc(Cl)sc2Cl)cc1	21.3
CCc1nn(CC(=O)NCCN2CCOCC2)c(=O)c2cc3c(OC)cccc3n12	3.51
CCCNC1=C(C)C(=O)CC1	15.9
Cn1ncc(Cl)c(Oc2ccc(C(C)(C)C)cc2)c1=O	-26
COc1cccc(CN2CCN(Cc3ccc(C)o3)CC2CCO)c1 (stereo not drawn)	-21.2
Cc1cc(C)n2nc(C(=O)Nc3c(C)nn(Cc4ccc(F)cc4)c3C)cc2n1	9.47
CC(C)COc1cccc(C(=O)Nc2ccc(N3CCOCC3)cc2N2CCOCC2)c1	-14.4
Cc1cc(C)nc(NC(N)=S)n1	14.9

SMILES	hERG current change (%, negative = inhibition) at 10uM [%]
Cc1cc(NC(=O)c2c(F)cccc2F)n(-c2nc3ccccc3[nH]2)n1	12.4
Clc1cccc(Cl)c1CSc1cc2c(nn1)-c1ccccc1CC2	7.7
CN(C)CCN(CC1CCCN(Cc2ccccc2F)C1)C(=O)Cc1ccc(F)c(F)c1 (stereo not drawn)	-22.2
CC1=C(C(=O)N2CCCC(C(=O)c3cccc4ccccc34)C2)OCCO1 (stereo not drawn)	20.8
CCc1ccccc1NC(=O)Nc1cccs1	4.68
Cc1nn(C)c(C)c1-c1c(C#N)c(N)nc2c1CCCCCC2	-11.3
CC(=O)NCCC(=O)Nc1cc(S(=O)(=O)N2CCCCC2)ccc1Oc1ccccc1	-64.9
Cc1ccc(SC[C@H](C)CN2CC[C@H](C(C)(C)C)CCC2=O)cc1	-13.9
O=S(=O)(N/N=C/c1ccc(N2CCOCC2)cc1)c1ccc(Br)cc1	15.1
COc1ccc(N(CC(=O)N2CCc3ccccc3C2)S(C)(=O)=O)cc1OC	-23.1
O=C1/C(=C/c2ccco2)SC(=S)N1CCC(=O)N1CCCCC1CCO (stereo not drawn)	-6.86
CCCCOC(=O)C1=C(C)NC(=O)NC1c1cccc([N+](=O)[O-])c1 (stereo not drawn)	-7.25
COc1ccc(CC(=O)Nc2ccc(C(=O)NC(C)(C)C)cc2)cc1OC	12.3
Cc1c(-c2ccc(Cl)cc2)[n+](=O)c(-c2ccccc2)cn1[O-]	7.91
Cc1cc(-n2c(=O)c(C#N)cc3c(=O)n4ccccc4nc32)no1	-17
COc1ccc(NC(=O)Cc2ccsc2)c(OC)c1	2.18
COCCCNC(=O)CCN1N=C(c2ccccc2)CCC1=O	18
Nc1c(N(CCC2=CCCCC2)C(=O)c2ccco2)c(=O)[nH]c(=O)n1Cc1ccccc1	17.1
COc1cccc(-c2cc(C(F)(F)F)nc(-n3cncn3)n2)c1	-23.4

SMILES	hERG current change (%, negative = inhibition) at 10uM [%]
O=C(NCc1ccco1)c1cc([N+](=O)[O-])cc([N+](=O)[O-])c1	-10.8
O=C(NCCCCc1ccccc1)C1CC(c2cc(C(F)(F)F)cc(C(F)(F)F)c2)=NO1 (stereo not drawn)	18.9
CC(NC(=O)c1ccccc1)c1nnc(SCc2nc3ccccc3c(=O)[nH]2)n1C (stereo not drawn)	14
NC(=O)c1ccc(C2SCC(=O)N2Cc2ccccc2)cc1 (stereo not drawn)	4.87
O=[N+]([O-])c1ccc2[nH]c(O)c(N=NC3CCS(=O)(=O)C3)c2c1 (stereo not drawn)	17.9
COc1ccccc1OCC(=O)Nc1oc(-c2ccccc2)c(-c2ccccc2)c1C#N	-2.06
O=C(NCc1ccccc1F)C1CCCN(c2cnccn2)C1 (stereo not drawn)	13.4
CCc1cccc(C)c1NC(=O)COC(=O)C1CCN(S(=O)(=O)c2ccccc2)CC1	7.65
CCCN(C(=O)C1CSC2(C)CCC(=O)N12)c1c(N)n(Cc2ccccc2)c(=O)[nH]c1=O (stereo not drawn)	12.2
Clc1ccc2c(c1)C(c1ccccc1Cl)=NCc1nnc(Br)n1-2.c1ccccc1	-6.61
COc1ccc(NC(=O)CN2CCN(Cc3ccccc3)CC2)cc1	-52.8
Cc1nc(N2CCCC2)c2ccsc2n1	-0.855
C=CCNC(=S)N(CC)c1cccc2ccccc12	-28.9
CCc1ccccc1NC(=O)/C(C#N)=C\c1ccc(Sc2ccccc2)o1	-8.2
CCN(CC)c1ccc(N=Cc2ccc([N+](=O)[O-])o2)cc1	-10.3
O=C(CSc1nnc(-c2cccs2)n1Cc1ccco1)Nc1ccc2c(c1)OCO2	-14.6
O=C(O)CCn1c(SCCOc2ccccc2F)nc2ccccc21	14.6
CCCC(=O)Nc1ccc(NC(=O)c2cccc(OC)c2)cn1	-4.71
O=C(N/N=C/c1ccc(-c2ccc(S(=O)(=O)Nc3ncccn3)cc2)o1)c1cc2ccccc2cc1O	15.1

From PMC4336329 (PLoS ONE, 2015)
